{"source": "the BET-seq Pho4 binding data (Le et al. 2018)", "note": "Some of the results follow. Values were computed here from the reads of four pooled replicates and scatter widely.", "data": [{"target": "T1, Pho4 (S. cerevisiae) (UniProt P07270)", "T1 sequence": "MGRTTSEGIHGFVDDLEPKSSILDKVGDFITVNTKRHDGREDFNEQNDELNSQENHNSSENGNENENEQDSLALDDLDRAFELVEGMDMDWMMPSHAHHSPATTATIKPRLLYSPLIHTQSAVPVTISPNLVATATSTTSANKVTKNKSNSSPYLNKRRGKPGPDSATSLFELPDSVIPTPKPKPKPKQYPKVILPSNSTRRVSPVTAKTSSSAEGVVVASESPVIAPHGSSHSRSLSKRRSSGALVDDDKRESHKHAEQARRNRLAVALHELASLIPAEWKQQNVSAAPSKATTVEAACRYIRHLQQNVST", "assay": "relative binding free energy (BET-seq); higher = weaker binding", "conditions": "reference: library average", "units": {"relative binding free energy": "kcal/mol"}, "values": [{"sequence": "TTGGACACGTGTTTAT", "relative binding free energy": 0.04}, {"sequence": "TACTGCACGTGTGGTC", "relative binding free energy": 0.06}, {"sequence": "TGTGGCACGTGAGATC", "relative binding free energy": 0.2}, {"sequence": "AGGAGCACGTGTGGAA", "relative binding free energy": -0.08}, {"sequence": "TTGAGCACGTGCGGTT", "relative binding free energy": -0.11}, {"sequence": "GGAATCACGTGTTTAT", "relative binding free energy": 0.21}, {"sequence": "CTTGGCACGTGATGTA", "relative binding free energy": -0.09}, {"sequence": "TCTTCCACGTGGGGTG", "relative binding free energy": -0.11}, {"sequence": "GGAATCACGTGATGCT", "relative binding free energy": 0.37}, {"sequence": "AGGTACACGTGGGGCA", "relative binding free energy": -0.25}, {"sequence": "ATGGGCACGTGTCAAG", "relative binding free energy": -0.19}, {"sequence": "TTTATCACGTGTGTCA", "relative binding free energy": 0.08}, {"sequence": "ATCGGCACGTGAGGTG", "relative binding free energy": 0.09}, {"sequence": "TTTTACACGTGCAGTT", "relative binding free energy": 0.16}, {"sequence": "AGGTCCACGTGATTGT", "relative binding free energy": 0.08}, {"sequence": "CGTTGCACGTGCTTTT", "relative binding free energy": -0.04}, {"sequence": "GGGTTCACGTGATGAG", "relative binding free energy": 0.59}, {"sequence": "GTTAGCACGTGTGGGG", "relative binding free energy": 0.01}, {"sequence": "GACTTCACGTGTGGTA", "relative binding free energy": 0.39}, {"sequence": "CGAGTCACGTGAGATG", "relative binding free energy": 0.38}, {"sequence": "TGGTCCACGTGTAATT", "relative binding free energy": 0.11}, {"sequence": "TCGATCACGTGTGTGT", "relative binding free energy": 0.18}, {"sequence": "CTGTTCACGTGGATTG", "relative binding free energy": 0.24}, {"sequence": "GTCGTCACGTGGGGGT", "relative binding free energy": 0.01}, {"sequence": "AGTGTCACGTGCTCTG", "relative binding free energy": -0.03}, {"sequence": "TAGGCCACGTGTAGTG", "relative binding free energy": -0.07}, {"sequence": "CATTGCACGTGGTTGT", "relative binding free energy": -0.03}, {"sequence": "ATTATCACGTGCAAGT", "relative binding free energy": 0.17}, {"sequence": "TTATACACGTGCTATG", "relative binding free energy": -0.05}, {"sequence": "GCAGACACGTGGGGGA", "relative binding free energy": -0.13}, {"sequence": "TTTTCCACGTGATGAA", "relative binding free energy": 0.13}, {"sequence": "GGAGACACGTGGATAG", "relative binding free energy": 0.06}, {"sequence": "TTTTTCACGTGTCGAG", "relative binding free energy": 0.36}, {"sequence": "GGTATCACGTGTGCAT", "relative binding free energy": 0.16}, {"sequence": "TGGTTCACGTGATTGA", "relative binding free energy": 0.38}, {"sequence": "GAGTGCACGTGCTTGT", "relative binding free energy": -0.16}, {"sequence": "TAGTCCACGTGTTGTT", "relative binding free energy": 0.08}, {"sequence": "TTGTTCACGTGAAAGG", "relative binding free energy": 0.39}, {"sequence": "AACGGCACGTGGGTCG", "relative binding free energy": -0.25}, {"sequence": "TGGGTCACGTGGTAAC", "relative binding free energy": 0.16}, {"sequence": "TGGCTCACGTGGAGAT", "relative binding free energy": 0.26}, {"sequence": "TTTTGCACGTGGTAAC", "relative binding free energy": 0}, {"sequence": "GTATTCACGTGTTTAT", "relative binding free energy": 0.26}, {"sequence": "AGGCGCACGTGTATTT", "relative binding free energy": -0.07}, {"sequence": "TGGAACACGTGAGTTG", "relative binding free energy": 0.25}, {"sequence": "GTTGACACGTGTAGGT", "relative binding free energy": 0}, {"sequence": "AGGGTCACGTGATGCC", "relative binding free energy": 0.29}, {"sequence": "GTGCGCACGTGAAGTT", "relative binding free energy": 0.22}, {"sequence": "TTTGTCACGTGCTGCT", "relative binding free energy": 0}, {"sequence": "TGCTGCACGTGGTGTT", "relative binding free energy": -0.15}, {"sequence": "TCGAGCACGTGTGCGG", "relative binding free energy": -0.15}, {"sequence": "CTTTGCACGTGTCTGA", "relative binding free energy": 0.13}, {"sequence": "ACAGACACGTGTGGGA", "relative binding free energy": 0.16}, {"sequence": "TGAAGCACGTGCGGGG", "relative binding free energy": -0.1}, {"sequence": "ATTCTCACGTGCGTTT", "relative binding free energy": 0.18}, {"sequence": "TAGTACACGTGCGAGG", "relative binding free energy": 0.06}, {"sequence": "GGATGCACGTGTGCGT", "relative binding free energy": 0.09}, {"sequence": "GCATGCACGTGTGTGG", "relative binding free energy": 0.02}, {"sequence": "AGTAGCACGTGGACGT", "relative binding free energy": -0.04}, {"sequence": "GGTTTCACGTGAGCTG", "relative binding free energy": 0.4}, {"sequence": "TTGCTCACGTGTAGTA", "relative binding free energy": 0.26}, {"sequence": "TAATGCACGTGACGTT", "relative binding free energy": -0.01}, {"sequence": "TGTGTCACGTGGGCGC", "relative binding free energy": -0.08}, {"sequence": "ATTTTCACGTGAGAGG", "relative binding free energy": 0.46}, {"sequence": "GAGGGCACGTGGTACG", "relative binding free energy": -0.08}, {"sequence": "AGGAGCACGTGTGCGA", "relative binding free energy": -0.08}, {"sequence": "TTGTCCACGTGCGGGG", "relative binding free energy": 0}, {"sequence": "GCTGTCACGTGGAGGG", "relative binding free energy": 0.09}, {"sequence": "GTTCTCACGTGTGCTT", "relative binding free energy": 0.21}, {"sequence": "TGAAACACGTGGTGGA", "relative binding free energy": -0.07}, {"sequence": "CATGTCACGTGGAGGT", "relative binding free energy": 0.16}, {"sequence": "GGTTTCACGTGGATAT", "relative binding free energy": 0.23}, {"sequence": "TAATACACGTGGTGGC", "relative binding free energy": -0.11}, {"sequence": "GTCCTCACGTGGGTTG", "relative binding free energy": 0.04}, {"sequence": "TGATTCACGTGATGAG", "relative binding free energy": 0.41}, {"sequence": "CTGGTCACGTGTATAG", "relative binding free energy": 0.13}, {"sequence": "TATCACACGTGGATGG", "relative binding free energy": 0.08}, {"sequence": "GCTAGCACGTGTGTTT", "relative binding free energy": -0.04}, {"sequence": "TTGTTCACGTGGCTTT", "relative binding free energy": 0.37}, {"sequence": "ATGTGCACGTGGTTAG", "relative binding free energy": -0.16}, {"sequence": "TCGGGCACGTGATGGG", "relative binding free energy": 0.05}, {"sequence": "TGAGGCACGTGCGTGA", "relative binding free energy": -0.13}, {"sequence": "GGGTTCACGTGCGTGG", "relative binding free energy": 0.23}, {"sequence": "GGGTACACGTGCGCGT", "relative binding free energy": -0.04}, {"sequence": "ATACGCACGTGTGAAT", "relative binding free energy": 0.08}, {"sequence": "TTGTACACGTGGGGCT", "relative binding free energy": -0.12}, {"sequence": "TATATCACGTGTGTGC", "relative binding free energy": 0.16}, {"sequence": "GTGAGCACGTGTGAAT", "relative binding free energy": 0.08}, {"sequence": "TGTTTCACGTGCAGCT", "relative binding free energy": 0.24}, {"sequence": "TCGTGCACGTGCGTGA", "relative binding free energy": -0.13}, {"sequence": "AAAGGCACGTGGGCAG", "relative binding free energy": -0.28}, {"sequence": "GAGCGCACGTGTTTTT", "relative binding free energy": 0.03}, {"sequence": "AGAGACACGTGTATTT", "relative binding free energy": 0.1}, {"sequence": "CTTGGCACGTGTTATA", "relative binding free energy": -0.12}, {"sequence": "TTTTTCACGTGATAAT", "relative binding free energy": 0.24}, {"sequence": "GGATACACGTGGCGTG", "relative binding free energy": 0.04}, {"sequence": "AGATTCACGTGGGGTT", "relative binding free energy": 0.21}, {"sequence": "ATAGGCACGTGTCGGC", "relative binding free energy": -0.04}, {"sequence": "TTTTGCACGTGTCTTA", "relative binding free energy": -0.02}, {"sequence": "TATGGCACGTGGGATT", "relative binding free energy": -0.1}, {"sequence": "AAGTTCACGTGGTTAA", "relative binding free energy": 0.31}, {"sequence": "TTCTGCACGTGGAGGG", "relative binding free energy": -0.04}, {"sequence": "CGGTACACGTGTGGTT", "relative binding free energy": 0.11}, {"sequence": "GAGGTCACGTGGCGAG", "relative binding free energy": 0}, {"sequence": "TGATACACGTGTGGGT", "relative binding free energy": 0.06}, {"sequence": "GTGGCCACGTGCGGGG", "relative binding free energy": -0.1}, {"sequence": "GCTTGCACGTGACGGG", "relative binding free energy": 0.15}, {"sequence": "TAAGACACGTGGTAAT", "relative binding free energy": 0.12}, {"sequence": "CAATGCACGTGTGTGT", "relative binding free energy": -0.03}, {"sequence": "TTGCACACGTGGTAGA", "relative binding free energy": 0.11}, {"sequence": "ATCGGCACGTGTGTGT", "relative binding free energy": -0.06}, {"sequence": "TGTTGCACGTGCGGTG", "relative binding free energy": 0.03}, {"sequence": "GGAGACACGTGTGTTG", "relative binding free energy": 0.01}, {"sequence": "AGGGTCACGTGATGCG", "relative binding free energy": 0.23}, {"sequence": "TGTGGCACGTGGGCCA", "relative binding free energy": -0.32}]}]}
